Source: PubChem BioAssay AID220 (DTP/NCI, 2004)
Inconclusive results are not listed. For part of its entries the source gives two or more results. Only these are listed. The source may hold further records. The values listed for one entry repeat one measurement in other runs, samples, wells, individuals or studies.

Test system: CD8F1 mice, subcutaneous mammary adenocarcinoma, T/C%
Experiment: NCI In Vivo Anticancer Drug Screen. Data for tumor model Mammary Adenocarcinoma CD8F1 (subcutaneous) in CD8F1
Conditions: endpoint: median tumor weight (est.), higher = larger tumour
In short: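 Antitumor activity is assessed in transplantable-tumor mice by comparing the treated group with a vehicle-treated control group. Survival or tumor size serves as the measure, reported as T divided by C.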

## [N-]=[N+]=CC(=O)CCC(N)C(=O)O (centres undefined)
dose: 3.12 mg/kg/injection, schedule: Q07DX004 (ip), vehicle: saline
  T/C: 28 % of control and 77 % of control
dose: 3.12 mg/kg/injection, schedule: Q07DX005 (ip), vehicle: saline
  T/C: 19 % of control and 66 % of control
dose: 6.25 mg/kg/injection, schedule: Q07DX004 (ip), vehicle: saline
  T/C: 47 % of control and 101 % of control
dose: 6.25 mg/kg/injection, schedule: Q07DX005 (ip), vehicle: saline
  T/C: 8 % of control and 60 % of control

## C/C(=N/NC(N)=S)c1ccc2ccccc2c1
dose: 25.0 mg/kg/injection, schedule: Q07DX005 (ip), vehicle: saline with Tween-80
  T/C: 41 % of control and 67 % of control
dose: 50.0 mg/kg/injection, schedule: Q07DX005 (ip), vehicle: saline with Tween-80
  T/C: 8 % of control and 63 % of control
dose: 100.0 mg/kg/injection, schedule: Q07DX005 (ip), vehicle: saline with Tween-80
  T/C: 1 % of control and 38 % of control

## CSCS(=O)C[C@H](CO)NC(=O)/C=C/c1c(C)[nH]c(=O)[nH]c1=O (some centres undefined)
dose: 1.0 mg/kg/injection, schedule: Q07DX005 (ip), vehicle: saline
  T/C: 11 % of control and 64 % of control
dose: 2.0 mg/kg/injection, schedule: Q07DX005 (ip), vehicle: saline
  T/C: 69 % of control and 101 % of control
